“And” between values parts separate entries of the source, which are not always exact repeats. Equal values may be shown once. The campaign covered roughly 48,000 compounds. About 1,200 (2.5%) were called active. Roughly 2% stayed inconclusive and do not appear here.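 Rule for the calls: active = activation of at least 60% and not above a set upper limit (about 1 call in 100 departs from these limits); inconclusive = activation of 40% to 60%, or above that upper limit; inactive = activation under 40%.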 The list shows a part of the results. Some compounds were tested as several samples or in several runs, with calls that do not always agree.
Biological target: Probable G-protein coupled receptor 32 (Homo sapiens) (UniProt O75388)
Chain of UniProt O75388 (O75388 whole entry, looked up): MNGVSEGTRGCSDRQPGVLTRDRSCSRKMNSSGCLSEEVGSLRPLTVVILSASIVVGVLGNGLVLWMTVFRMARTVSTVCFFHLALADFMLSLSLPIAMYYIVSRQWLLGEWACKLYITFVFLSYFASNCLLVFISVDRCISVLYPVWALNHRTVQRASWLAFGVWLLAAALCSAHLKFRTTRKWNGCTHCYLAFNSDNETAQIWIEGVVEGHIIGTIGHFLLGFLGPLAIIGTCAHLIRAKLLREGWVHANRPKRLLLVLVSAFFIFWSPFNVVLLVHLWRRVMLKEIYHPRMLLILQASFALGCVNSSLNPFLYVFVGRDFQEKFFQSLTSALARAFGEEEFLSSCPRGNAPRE
Experiment: qHTS for Agonists of Human Resolvin D1 Receptor DRV1
Conditions: CHO-K1 GPR32 beta-arrestin PathHunter luminescence, 90 min; at 76.9 µM; stronger effect = higher value; zero percent set by DMSO-only wells
Description: Endogenous resolution of inflammation is known to be transduced through various GPCRs and their natural mediators of lipid nature. Resolvin D1 (RvD1) is one of the active players in resolution of acute inflammation through regulation of anti-inflammatory pathways; it is known to enhance phagocytosis of human macrophages, limits neutrophils infiltration, etc. […] The search for GPR32-activating small molecules with anti-inflammatory effects similar to its natural omega-3 derivative ligand in order to use them as research tools for further studies of inflammation and its resolution was the goal of this screening project. For primary screening assay, we used CHO-K1 GPR32 beta-arrestin cell line (DiscoveRx, #93-0321C2A) and the PathHunter(R) beta-Arrestin Assay (DiscoveRx) which measures recruitment of beta-arrestin to the GPR32 and generates chemiluminescent signal. These engineered cells stably transfected with GPR32 co-express GPR32-fused small 42-amino acid fragment of beta-Gal called ProLinktrade mark, and […] -tagged beta-Arrestin fusion protein. When GPR32 is activated by a ligand, it stimulates binding of beta -Arrestin to ProLink-tagged GPR32, and two parts of beta-Gal complement forming a functional enzyme. Upon substrate (PathHunter(R) Detection reagent) addition, beta-Gal hydrolyzes it and generates a chemiluminescent signal.
The cells were thawed and plated in thawing media containing F-12 HAM (Invitrogen, #11765-054), 10% FBS (Invitrogen, #10082), 1x Glutamine, and 1x Pen/Strep onto the 175-mm flask for 24 hours. Then, thawing media was replaced with Growth media which contains 800microg/mL Geneticin (Invitrogen, #10131) and 300microg/mL Hygromycin B (Invitrogen, #10687) in addition to described above. For the assay, the cells were harvested at ~80% confluent stage with Cell Dissociation buffer (Gibco, #13151), and seeded at 2,500 cells/ 3microL/well in assay media (PathHunter(R) Cell Plating Reagent, DiscoverX, #93-0563R1B) using MultiDrop Combi dispenser (Thermo Scientific, Logan, UT) onto white solid bottom tissue culture-treated 1536-well plates (Greiner # 789173-F) and allowed to attach overnight at 37 degrees C, 95% humidity, 5% CO2, . Next, 23nL/well of compound solutions in DMSO were added with a Pin Tool (Kalypsis, San Diego, CA) to the assay plates. As the basal control (EC0), 23 nL/well of DMSO was used on each plate. The cells were incubated in the presence of compounds or DMSO for 90 minutes at 37 degrees C, 5% CO2. Subsequently, 1.5microL/well of PathHunter(R) Detection Reagent prepared per the manufacturer's instructions was added to the assay plates with BioRAPTR FRDtrade mark dispenser (Beckman Coulter, San Francisco, CA) and incubated for 1 hour at ambient temperature prior to the measurement of the luminescent signal on ViewLux(R) uHTS Microplate Imager (Perkin Elmer, Waltham, MA).

activation, active:
O=C(CC1(O)C(=O)N(CCc2ccccc2)c2ccc(Br)cc21)c1ccccc1 (centres undefined) 60.3%, Cc1cccc(C(=O)Nc2nnc(S(=O)(=O)N3CCC(C)CC3)s2)c1 68.5%

activation, 63% (active) and -19.2% (inactive):
CN(C)CCCN1c2ccccc2Sc2ccc(Cl)cc21

activation, inactive:
O=C(CCS(=O)(=O)c1ccc(Br)s1)Nc1c(F)cccc1F 7.25%, COc1cc(C2CC(=O)N(c3ccc(C)c(Cl)c3)C3=C2C(=O)OC3)cc(OC)c1OC (centres undefined) 14.1%, COc1ccc(-c2cc(C(F)(F)F)n3nc(C(=O)OC(C)C)cc3n2)cc1 -15.1%, Cc1cc2c(n1-c1ccc(C(=O)NCCc3ccc(Cl)cc3)cc1)CCC(C)C2 (centres undefined) -12.4%, CCc1ccc2oc(C(=O)Nc3nc(-c4ccc(F)cc4)ns3)c(C)c2c1 -2.05%, CCOC(=O)c1cccc(NC(=O)CC2C(=O)N(c3ccccc3)C(=O)N2Cc2ccco2)c1 (centres undefined) -15.3%, Cc1c(C2=CCN(S(=O)(=O)c3ccc(Cl)cc3)CC2)c2ccccc2n1CC(=O)N1CCCC1 -13.4%, CCOc1ccccc1CNC(=O)C1CCN(c2nnc(C)c3c(C)n(-c4ccc(C)cc4)nc23)CC1 -8.06%, Cc1cccc(OCC(=O)Nc2ccc(OCc3cc(=O)n4cc(C)ccc4n3)cc2)c1 4.51%, Cc1c(Cl)cccc1NC(=O)C(C)n1nc(C)c2c(C)n(-c3ccccc3)nc2c1=O (centres undefined) -10.5%, CC(=O)Nc1ccc(Nc2nc3ccc(Cl)cc3n3cnnc23)cc1 4.07%, COc1ccc(N(Cc2nnc3n2CCCCC3)C(=O)Nc2ccc(Cl)cc2)cc1Cl 30.7%, CCC1CCCCN1C(=O)CSc1n[nH]c(-c2ccccc2)n1 (centres undefined) -0.325%, Cc1cccc(NC(=O)CSc2cn(CC(=O)N3CCC(C)CC3)c3ccccc23)c1C -16.5%, Fc1ccccc1-n1ncc2c1ncn1nc(COc3ccc(Cl)cc3)nc21 -8.19%, COc1ccccc1CNC(=O)c1cc(S(=O)(=O)N2CCCCCC2)cn1C -3.52%, O=C1CC(c2nnc(Cc3ccc(F)cc3)o2)CN1c1ccccc1 (centres undefined) -6.01%, Cc1cccc(N2CCN(S(=O)(=O)c3nnc(NC(=O)c4ccc(Cl)cc4)s3)CC2)c1 3.52%, COc1ccc(OC)c(NC(=O)c2ccc3nc(C(C)C)oc3c2)c1 -18.6%, CC(=O)c1cccc(NC(=O)Cn2c(-c3cncs3)nc3ccccc32)c1 -11.6%, Cc1ccccc1CN1CCC(CNC(=O)c2cc3ccc4cccnc4c3[nH]2)CC1 -5.32%, COc1ccccc1NC(=O)c1sc2nc(C)c(C(=O)Nc3ccc(Cl)cc3)c(-c3ccc(Br)cc3)c2c1N 16.3%, CC(C)(C)C(=O)NC1CC(=O)N(c2ccc3c(c2)OCCO3)C1 (centres undefined) 2.7%, COc1ccccc1N1CCN(C(=O)c2cc3c(s2)-c2ccccc2OC3)CC1 -12.3%, CCc1cccc(NC(=O)c2cc(S(=O)(=O)N3CCCCCC3)cn2C)c1 -9.76%, CCOC(=O)Cc1c(C)nc2c(-c3ccc(OC)c(OC)c3)c(C)nn2c1C -14.5%, O=C(CCC(=O)N1CC2CCCN2c2ccccc21)NCc1ccccc1F (centres undefined) -28.5%, COc1ccc(-c2cc(C(=O)Nc3ccc(C#N)cc3)no2)cc1 5.32%, CCOC(=O)CC(NC(=O)c1cc2cc(OC)ccc2oc1=O)c1ccc(OC)cc1 (centres undefined) 6.64%, Cc1cccc(OCC(=O)OCc2cc(=O)n3nc(C4CC4)sc3n2)c1 21.6%, O=C(NCc1ccccc1)c1cccc(Nc2nc3ccccc3n3nnnc23)c1 25.5%, CCCC1(C)C(C#N)(C#N)C1(C#N)C#N -28.1%, CCOc1ccc(CNC(=O)CCS(=O)(=O)c2cc3c4c(c2)CCN4C(=O)CC3)cc1 -8.22%, O=C(C1CCN(S(=O)(=O)c2cccc3nonc23)CC1)N1CCN(c2ccc(F)cc2)CC1 4.35%, CC1CCN(C(=O)CN2CCSc3ccc(S(=O)(=O)N(C)C)cc32)CC1 -5.25%, CCOC(=O)c1c(C)oc2ncnc(Nc3ccc(CC)cc3)c12 5.36%, CCC(=O)N1CCc2cc(S(=O)(=O)NCCC(=O)NC(C)c3ccccc3)ccc21 (centres undefined) 7.49%, COc1ccc(/C=C/c2nc(-c3ccccc3O)n(-c3ccccc3)n2)cc1OC -12.2%, CC(=O)c1ccc(NC(=O)C(Cc2ccccc2)NS(=O)(=O)c2ccc3c(c2)CCC(=O)N3)cc1 (centres undefined) 10.3%, CCCCOc1ccc(NC(=O)CSc2ccc(C(=O)O)cn2)cc1 0.0116%, COc1ccc(NC(=O)CCc2nc3cccnc3n2Cc2cccs2)c(OC)c1 -11.2%, CCOC(=O)c1ccc(NC(=O)Nc2cccc(OCc3cc(=O)n4ccc(C)cc4n3)c2)cc1 -14.1%, Cc1cc(N2CCN(c3ccccc3F)CC2)n2cnnc2n1 -6.22%, CCCSc1ncc(Cl)c(C(=O)Nc2ccc(OC)cc2OC)n1 -11.4%, O=C(NCc1ccc(F)cc1)c1ccc2c(c1)N(Cc1ccc(F)cc1Cl)C(=O)CS2 48.1%, CC(C)CCSc1nc2c(c(=O)n(C)c(=O)n2C)n1Cc1ccccc1Cl -8.58%, COc1cccc(CNC(=O)CCn2ccc3cc(S(=O)(=O)N4CCCC4)ccc32)c1 -4.61%, Cc1ccc(CN2C(=O)SC(Nc3ccccc3)C2=O)cc1 (centres undefined) -86%, O=C(NCCn1cc(SCc2ccc(C(F)(F)F)cc2)c2ccccc21)c1ccccc1F -8.06%, CCn1cnc2c(=O)oc3ccc(S(=O)(=O)N4CCN(c5cc(C)ccc5C)CC4)cc3c21 11.8%, COc1ccc(NC(=O)Nc2nnc(SCC(=O)Nc3cccc(C)c3C)s2)cc1 -7.96%
